Measurements published in the supplement of paper PMC3334620.
Over roughly 33,000 sequences, “E-score (-0.5 to 0.5)” has its median near -0.056; the highest 2% begin near 0.38. The list shows a part of the results.

The sequences below were run against Stb4 (UniProt P50104) (assay: PBM E-score (8-mer binding enrichment) (E-score (-0.5 to 0.5)); higher = stronger / more preferred TF binding; most listed sequences are background and not binding sites). Settings: protein concentration: 200 nM; construct: GST-DNA-binding domain.
Description: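 Universal 'all 10-mer' protein binding microarrays (Agilent AMADID 015681) probed with GST-tagged S. cerevisiae TFs (full-length or DBD) made by in vitro transcription/translation (PURExpress), about 100-200 nM. Bound TF was detected with fluorescent anti-GST. Each ungapped 8-mer (which stands for itself and its reverse complement) is scored by the PBM enrichment score (E-score), a modified Wilcoxon-Mann-Whitney statistic from -0.5 to +0.5, computed with the Universal PBM Analysis Suite. Scale: above 0.35 generally sequence-specific binding.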

| Sequence | PBM E-score |
| --- | --- |
| AACCTTAG | -0.0964 |
| GCACTAAC | 0.0338 |
| GAAAGGGA | 0.0367 |
| AGCGGCTG | 0.0576 |
| AATTCAGC | -0.017 |
| ATCCTGGC | -0.142 |
| AGCACGAC | -0.0379 |
| AATTTTGT | 0.0865 |
| CACAGTCC | -0.147 |
| CTGTGCTC | -0.00708 |
| GAACTCAA | -0.011 |
| CGACTTGA | -0.0925 |
| ACGACGTG | -0.231 |
| CACACTAG | -0.139 |
| TGACAGCA | -0.127 |
| GGCTACAA | -0.00609 |
| ACGAATGA | 0.0262 |
| CCACTGTA | -0.133 |
| AATCGGAC | 0.133 |
| CAGCGGCA | -0.0226 |
| GCGTATCA | -0.19 |
| AAGTCCAC | -0.202 |
| ACTGAGCG | -0.198 |
| GGCGTGAA | -0.0673 |
| ACCAGTGA | -0.21 |

| Sequence | PBM E-score |
| --- | --- |
| CTAGCCTC | -0.165 |
| GAATTGAA | 0.0209 |
| TACTTACA | -0.0918 |
| TAATGAAA | -0.043 |
| AGGACATC | 0.0539 |
| CAGGCGAG | -0.294 |
| ATGGTGGG | -0.0919 |
| CGCGCAGA | -0.061 |
| GCCTACCC | 0.0606 |
| ATCGGAAA | 0.424 |
| GTTCAAGA | 0.0136 |
| ATGGAGCA | -0.195 |
| GCCCTACC | 0.00825 |
| CCGCCGTC | 0.0393 |
| AACTCCTC | -0.0105 |
| GCGGCATA | 0.0839 |
| CCATGTTC | -0.0158 |
| AGATCCGG | 0.366 |
| AAAAGAAT | -0.0316 |
| GACGCGAA | -0.14 |
| ACGCACGT | -0.132 |
| ACGATAGA | -0.181 |
| ACATAACG | 0.0312 |
| CCCCGTGC | 0.176 |
| CCTTTATA | -0.113 |

| Sequence | PBM E-score |
| --- | --- |
| CGCGTACC | 0.0237 |
| TACGACAA | -0.0859 |
| ATCGCGGA | 0.172 |
| AGCCTTTA | -0.0983 |
| GTGCGAAC | -0.0642 |
| CTACAGTC | -0.214 |
| ACCACTCC | 0.137 |
| ACAGGTAT | 0.0777 |
| AGAAGATG | -0.0645 |
| CGGGTAGA | 0.389 |
| AAGGGGAG | -0.056 |
| CATCACCA | -0.265 |
| CCTCCACG | -0.194 |
| ATTTGCGA | -0.226 |
| ACCTTTTC | -0.171 |
| TCTAAAAA | 0.0389 |
| CTGCAGTA | -0.353 |
| GTTTGACA | -0.0918 |
| TGAAAGAA | -0.122 |
| CCCGCCGC | 0.274 |
| TAGTTGCA | -0.0122 |
| GATATTTA | 0.0794 |
| CGTCAACC | 0.0346 |
| CAGGGAGG | -0.264 |
| CCACGACA | -0.126 |

| Sequence | PBM E-score |
| --- | --- |
| CTGTTATC | -0.0959 |
| ACGCTGGA | -0.079 |
| ACCTCATG | -0.336 |
| GCCGCAGC | 0.00612 |
| GGAGAATA | 0.148 |
| GCGGGTGA | 0.214 |
| GTTTTAAA | -0.17 |
| CAGAAGCG | 0.0402 |
| CGTGCGGC | 0.00334 |
| ACCGTAGC | 0.0437 |
| GTGTCCAA | -0.0404 |
| GTAATTAC | 0.0658 |
| TATGTAAA | -0.0136 |
| ATCATCAG | -0.159 |
| CCGGCGCG | 0.301 |
| CGGTTGGA | 0.098 |
| AACAAGCA | -0.0987 |
| CCGCTTCG | 0.177 |
| AGTATCAA | -0.0115 |
| ATTGCAGG | -0.0795 |
| TTTACAAA | -0.083 |
| AGATGGTG | -0.129 |
| ATTGAAAT | -0.155 |
| CCACTACG | 0.021 |
| GGTGGGCA | -0.0981 |

| Sequence | PBM E-score |
| --- | --- |
| AAACGTCA | -0.174 |
| ATTCGGTC | 0.223 |
| GAGACAGA | -0.0711 |
| CAACGCGA | -0.0616 |
| ACGGACGC | -0.0449 |
| GAACGAGA | -0.0136 |
| GTTGGCCA | -0.152 |
| ACCGCGCA | -0.102 |
| AGGGCCGA | 0.232 |
| CGGTAGCA | 0.13 |
| ACGCGGCA | 0.199 |
| CAGGATGC | 0.165 |
| GAAAAGAA | 0.0326 |
| AGCTGTGC | -0.148 |
| AAGCATGC | -0.292 |
| AGGTAGCG | -0.0768 |
| TACACATA | -0.103 |
| AGGGCTGA | -0.0772 |
| ACTGAACA | -0.0425 |
| GAGGATAA | -0.0181 |
| AGCAAGAG | -0.397 |
| ACGCCGGC | 0.265 |
| GCATATGC | -0.173 |
| AAGTAAAT | 0.0183 |
| CTGCTTTC | 0.00582 |

| Sequence | PBM E-score |
| --- | --- |
| ATGGACAC | -0.175 |
| AGATCTAG | -0.255 |
| AGCATACT | -0.166 |
| ATTTGATA | -0.106 |
| CTCGTACC | 0.0299 |
| CCATACTA | -0.0666 |
| GCCTCGAC | -0.251 |
| ACGTAAGG | -0.309 |
| AGTGGGAG | -0.244 |
| AGTGTCGC | 0.00342 |
| ATAGATAT | 0.0746 |
| ACAACCTG | -0.288 |
| ATACACCA | -0.154 |
| GGCACACC | 0.0691 |
| CGACTAAG | 0.0544 |
| ATTTTCCC | 0.0682 |
| GTATTTAA | -0.0662 |
| TCTACGAA | -0.192 |
| TCTGCAGA | -0.303 |
| CCCTAGAA | -0.216 |
| CAGAACGG | 0.0906 |
| ACACGTAT | -0.165 |
| CGTCCCGA | 0.402 |
| CTACCGAC | 0.278 |
| AAAACGGT | -0.164 |

| Sequence | PBM E-score |
| --- | --- |
| GCCCAGCC | -0.0549 |
| ATTTTGAC | 0.00768 |
| AACCACCC | 0.159 |
| ACTGATCC | -0.0314 |
| GACTATAA | -0.162 |
| AATCACAG | -0.269 |
| CAATTACG | -0.133 |
| CTGAAACC | 0.117 |
| AAACAAAT | -0.0369 |
| GCAAAACC | 0.0298 |
| AGAATGTA | -0.0835 |
| CCCGAACA | 0.393 |
| GGTTGCAA | -0.0593 |
| AAGTACCT | -0.175 |
| CGAAATTC | 0.236 |
| ACGATCAC | -0.168 |
| ATGCTGGC | -0.286 |
| AACTGCTT | -0.213 |
| CGGAAATA | 0.429 |
| ATTGGTTA | -0.0832 |
| AATAGCCC | -0.12 |
| ACGCCGCG | 0.042 |
| TACGCGGA | 0.201 |
| GCCCCCCA | -0.177 |
| ATGCTGCA | -0.168 |

| Sequence | PBM E-score |
| --- | --- |
| ACTTTTCT | -0.157 |
| GCTACAGC | 0.0338 |
| ACTGCCGA | 0.407 |
| CACACAAC | -0.109 |
| AAACAGTT | -0.0803 |
| GATTGGCC | -0.0876 |
| ACGCACTC | -0.0152 |
| AGTAGCAT | 0.00303 |
| AAACTTGA | -0.205 |
| AAGACTCA | -0.324 |
| AGTTGCAA | -0.126 |
| ATGATACA | -0.127 |
| AAATACTT | 0.038 |
| GGCGTAAC | -0.135 |
| ACATACGC | 0.141 |
| AATAATGG | -0.0111 |
| TAACTAGA | 0.059 |
| CAATCACG | 0.0651 |
| TGTAAGAA | 0.101 |
| ATAAACAG | -0.0548 |
| CGGTTATC | 0.316 |
| GGTAGATA | 0.18 |
| AACCCGCT | 0.0984 |
| ACTGAATA | -0.0162 |
| CGAGGTAA | 0.127 |

| Sequence | PBM E-score |
| --- | --- |
| TCCGGCAA | 0.347 |
| CTTAGGTA | -0.101 |
| AGAGACCA | -0.167 |
| AACGACTA | -0.151 |
| GTCCTAGA | -0.0562 |
| TGACGTCA | -0.158 |
| AAACCATG | 0.108 |
| ATCATAGC | 0.0151 |
| AGAACAGC | -0.172 |
| GAACTACC | 0.161 |
| CTAATCTA | -0.153 |
| CTGCTGAC | -0.102 |
| GAACACGC | 0.11 |
| CTATGGGA | -0.104 |
| AAGTGCCC | 0.0188 |
| ACCTTTCA | -0.0291 |
| ACGCGGCG | 0.121 |
| GACGATCC | 0.217 |
| CTCCAATC | -0.189 |
